Some of the results follow. Sequences were assembled here from the parent chain. Inactive controls read about 0.05.
B1: TEV protease; numbered along this chain (parent)
chain: MGESLFKGPRDYNPISSSICHLTNESDGHTTSLYGIGFGPFIITNKHLFRRNNGTLVVQSLHGVFKVKDTTTLQQHLVDGRDMIIIRMPKDFPPFPQKLKFREPQREERICLVTTNFQTKSMSSMVSDTSCTFPSGDGIFWKHWIQTKDGQCGSPLVSTRDGFIVGIHSASNFTNTNNYFTSVPKNFMELLTNQEAQQWVSGWRLNADSVLWGGHKVFMVKPEEPFQPVKEATQL

Variants of: B1
Assay: raw area under fraction-flipped curve 0-4 h after induction (AUC4h, not background-subtracted), DNA-recorder readout of cleavage of the substrate (dimensionless); higher = more cleavage of the substrate by the protease variant
Conditions: temperature: 34 °C; time window: 0-4 h after rhamnose induction
Procedure: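 In vivo DNA recorder in E. coli TOP10(DE3) ΔrhaA at 34 °C. Each TEVp single-site mutant (parent TEVp 0) is paired with a single-site variant of the 7-mer TEVs (canonical ENLYFQ|S). The substrate sits between flexible linkers in a Bxb1-sfGFP-TEVs-SsrA fusion, so cleavage stabilises Bxb1 and speeds flipping of a recombination array, read by NGS. The value is the raw area under the fraction-flipped curve over 0-4 h after rhamnose induction (AUC4h), with ≥20 reads per time point. It is not background-subtracted; inactive controls average about 0.047.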
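Also: Bxb1 expression induced with 0.2% (w/v) L-rhamnose at OD600 near 0.5, cultures sampled hourly, flipped fraction per protease–substrate barcode pair counted by paired-end Illumina sequencing.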

Row | Variant | area with substrate ENAYFQS | area with substrate ENCYFQS | area with substrate ENEYFQS | area with substrate ENGYFQS | area with substrate ENPYFQS | area with substrate ENTYFQS | area with substrate ENFYFQS | area with substrate ENKYFQS | area with substrate ENNYFQS | area with substrate ENQYFQS | area with substrate ENRYFQS | area with substrate ENDYFQS | area with substrate ENHYFQS | area with substrate ENIYFQS | area with substrate ENMYFQS | area with substrate ENSYFQS | area with substrate ENVYFQS | area with substrate ENWYFQS | area with substrate ENYYFQS
1 | G138H | 0.0507 | 0.0621 | 0.0512 | 0.0636 | 0.0624 | 0.0635 |  |  |  |  |  |  |  |  |  |  |  |  | 
2 | G138R | 0.0647 |  | 0.0613 | 0.0612 | 0.0556 | 0.0774 | 0.0504 | 0.0602 | 0.046 | 0.0545 | 0.0528 |  |  |  |  |  |  |  | 
3 | L156N | 0.0479 | 0.048 | 0.0517 | 0.0543 | 0.0435 | 0.0527 | 0.0522 | 0.0544 | 0.0362 | 0.0538 |  | 0.0669 | 0.0408 | 0.0556 | 0.0468 | 0.0612 | 0.0477 | 0.0549 | 0.0512
4 | D149G | 0.0513 | 0.0572 | 0.0602 | 0.0518 | 0.0786 | 0.0525 | 0.0637 | 0.067 | 0.0583 | 0.0573 | 0.0597 | 0.0597 | 0.0621 | 0.0761 | 0.066 | 0.0562 | 0.115 | 0.0059 | 
5 | G136A | 0.0492 | 0.0594 | 0.0513 |  |  |  |  | 0.058 |  | 0.0619 | 0.0606 | 0.066 |  |  |  | 0.0616 | 0.0695 |  | 
6 | G136K | 0.07 | 0.0584 | 0.0571 | 0.0769 |  | 0.0478 | 0.0642 |  | 0.0724 |  |  | 0.0665 |  | 0.0752 |  |  | 0.0611 | 0.0348 | 
7 | G136E | 0.0435 | 0.0647 | 0.0322 | 0.0339 | 0.056 | 0.0677 | 0.0635 | 0.0564 | 0.0649 | 0.0507 | 0.0405 | 0.0703 |  |  |  | 0.049 | 0.0729 |  | 0.054
8 | G136F | 0.0599 | 0.0741 | 0.0548 | 0.0747 | 0.072 |  | 0.102 | 0.0662 |  | 0.0626 | 0.0593 | 0.074 | 0.0609 | 0.0987 |  | 0.0633 | 0.0875 | 0.0275 | 0.0476
9 | T192K | 0.057 |  | 0.0679 |  |  |  | 0.0608 |  |  | 0.0574 | 0.0561 |  | 0.0518 | 0.0064 | 0.0822 | 0.0633 |  |  | 0.0621
10 | T192N | 0.0676 | 0.0684 | 0.0458 | 0.065 | 0.0768 | 0.0596 |  | 0.0672 | 0.0533 | 0.0633 | 0.0437 | 0.0643 | 0.0615 | 0.133 | 0.0606 | 0.0688 | 0.0631 | 0.0919 | 0.0528
11 | T192L | 0.0629 | 0.0597 | 0.0415 | 0.0772 | 0.055 | 0.0653 | 0.0512 | 0.0685 | 0.0572 | 0.0643 | 0.0651 | 0.0542 | 0.0515 | 0.112 |  | 0.059 | 0.084 |  | 
12 | C152T | 0.0601 | 0.0615 | 0.0452 | 0.0642 |  |  | 0.0685 | 0.0641 | 0.0582 | 0.0674 | 0.0398 | 0.0605 | 0.0605 | 0.0613 | 0.0568 | 0.0363 |  | 0.0032 | 0.0613
13 | C152R | 0.0586 | 0.0627 |  |  | 0.07 |  |  | 0.0671 | 0.0573 |  |  | 0.0594 | 0.0662 |  |  | 0.0717 |  | 0.0475 | 
14 | C152Y | 0.0598 | 0.0079 |  | 0.0444 |  | 0.0681 | 0.0473 |  |  | 0.0731 | 0.0816 |  | 0.0689 |  |  | 0.0429 |  | 0.0612 | 
15 | V157G | 0.0535 | 0.0563 | 0.0685 | 0.0395 | 0.0457 |  | 0.0625 | 0.0596 |  | 0.0553 |  | 0.0578 | 0.0621 |  |  | 0.0429 |  | 0.0207 | 
16 | P155Q | 0.0464 | 0.0628 | 0.0589 | 0.0459 | 0.0412 | 0.0507 | 0.0422 | 0.0552 | 0.0544 | 0.0518 | 0.0553 | 0.0627 | 0.0555 | 0.0556 | 0.0728 | 0.051 | 0.0485 | 0.054 | 0.0342
17 | G153V | 0.0508 | 0.053 | 0.0367 | 0.0567 | 0.0447 | 0.0444 |  | 0.0501 | 0.0539 | 0.0449 | 0.0593 | 0.053 | 0.0491 |  |  |  |  |  | 
18 | G153R | 0.0513 |  |  |  |  |  | 0.0551 |  |  |  |  |  |  |  |  |  |  |  | 
19 | I167G | 0.0253 | 0.0336 | 0.0646 |  |  | 0.0464 | 0.0562 | 0.065 |  | 0.055 |  |  | 0.0508 | 0.0606 | 0.0598 | 0.0474 |  |  | 
20 | I167D | 0.0379 | 0.0512 | 0.053 | 0.0573 | 0.0527 | 0.0359 |  | 0.0509 |  | 0.055 | 0.0458 | 0.0553 | 0.0642 | 0.0431 |  | 0.0513 | 0.0513 | 0.0533 | 
21 | R160C | 0.0881 | 0.0839 | 0.0563 | 0.0821 | 0.044 |  | 0.0673 | 0.0805 |  | 0.0502 |  | 0.0607 | 0.0613 |  |  | 0.0611 | 0.0734 | 0.0457 | 0.0503
22 | R160F | 0.0727 | 0.0432 | 0.0726 | 0.0798 | 0.0565 | 0.0644 | 0.0748 | 0.0623 | 0.0629 | 0.0577 | 0.0552 | 0.0668 | 0.0565 | 0.1 |  | 0.0539 |  | 0.0579 | 
23 | R160Q | 0.064 | 0.0562 |  |  | 0.0652 | 0.0803 | 0.0726 |  | 0.0519 | 0.0398 | 0.0578 | 0.0621 | 0.0581 | 0.1 |  | 0.0654 | 0.0713 |  | 0.107
24 | R160G | 0.0674 |  | 0.0617 | 0.0372 |  | 0.0732 | 0.0633 |  | 0.0641 | 0.0812 | 0.0448 | 0.0575 | 0.0573 | 0.11 |  | 0.0708 | 0.0685 |  | 0.0508
25 | R160E | 0.068 | 0.0838 | 0.0612 | 0.0543 | 0.0606 |  | 0.0668 | 0.0581 |  | 0.0504 |  | 0.0634 | 0.0565 | 0.0911 | 0.0705 | 0.0602 | 0.08 | 0.0573 | 
26 | G150T | 0.0643 | 0.0695 | 0.069 | 0.0696 | 0.0666 | 0.0656 | 0.061 | 0.0498 | 0.0645 | 0.0586 | 0.05 | 0.0616 | 0.0595 | 0.0621 | 0.0689 | 0.0627 | 0.0562 |  | 0.0569
